Reference: PMC1914345
No constants are given. Whether binding was seen depends on the method and setting. Binding seen in cells or lysates may run through a third protein. Some binding calls cover weakened binding; strength is not graded here. Tags and fused reporters may be left off the sequences shown.

Protein sequences, listed by entry. Tags and fused reporters are not part of them.
UniProt P34148: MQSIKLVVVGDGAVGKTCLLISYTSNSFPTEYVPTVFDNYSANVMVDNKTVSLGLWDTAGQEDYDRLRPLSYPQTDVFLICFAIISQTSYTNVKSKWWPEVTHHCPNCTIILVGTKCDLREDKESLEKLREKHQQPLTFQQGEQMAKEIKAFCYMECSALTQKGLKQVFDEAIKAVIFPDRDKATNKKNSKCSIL
UniProt P34149: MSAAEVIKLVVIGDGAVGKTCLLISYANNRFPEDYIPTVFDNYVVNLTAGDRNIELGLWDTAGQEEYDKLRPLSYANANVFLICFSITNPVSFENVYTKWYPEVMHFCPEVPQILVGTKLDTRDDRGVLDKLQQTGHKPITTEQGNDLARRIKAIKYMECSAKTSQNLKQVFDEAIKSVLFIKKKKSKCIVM
UniProt P34150: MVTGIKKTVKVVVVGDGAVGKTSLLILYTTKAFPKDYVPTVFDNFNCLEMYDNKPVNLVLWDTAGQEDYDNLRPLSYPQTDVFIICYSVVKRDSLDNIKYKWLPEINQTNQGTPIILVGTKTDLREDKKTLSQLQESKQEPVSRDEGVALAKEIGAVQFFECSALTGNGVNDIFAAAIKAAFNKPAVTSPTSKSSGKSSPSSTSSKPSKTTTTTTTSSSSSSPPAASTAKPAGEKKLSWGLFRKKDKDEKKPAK
UniProt Q9GPR7: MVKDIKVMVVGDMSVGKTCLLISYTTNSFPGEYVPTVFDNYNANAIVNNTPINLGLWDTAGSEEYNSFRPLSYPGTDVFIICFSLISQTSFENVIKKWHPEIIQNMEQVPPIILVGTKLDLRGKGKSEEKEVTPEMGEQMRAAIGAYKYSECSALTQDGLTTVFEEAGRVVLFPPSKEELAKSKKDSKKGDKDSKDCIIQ

T1: GST-RacGEF (GxcDD residues 395-707 containing the RacGEF domain, GST fusion) (Dictyostelium discoideum) (UniProt Q1ZXH8)
T1 sequence: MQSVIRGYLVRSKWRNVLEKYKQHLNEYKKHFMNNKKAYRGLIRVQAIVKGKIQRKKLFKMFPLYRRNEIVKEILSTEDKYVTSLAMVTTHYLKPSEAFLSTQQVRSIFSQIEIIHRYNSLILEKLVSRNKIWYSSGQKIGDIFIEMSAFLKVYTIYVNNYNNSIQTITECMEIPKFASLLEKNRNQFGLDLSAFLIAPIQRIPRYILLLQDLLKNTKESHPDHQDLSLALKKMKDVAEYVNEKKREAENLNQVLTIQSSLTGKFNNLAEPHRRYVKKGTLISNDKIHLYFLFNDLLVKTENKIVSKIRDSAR


Target: T1, GST-RacGEF (GxcDD residues 395-707 containing the RacGEF domain, GST fusion) (Dictyostelium discoideum)
Experiment: pull-down; GST-RacGEF on glutathione-sepharose beads incubated 3 hrs at 4°C with lysates of AX2 cells expressing GFP-Rac fusions (25 mM Tris pH 7.5, 150 mM NaCl, 5 mM EDTA, 0.5% Triton X-100, 1 mM NaF, 0.5 mM Na3VO4, 1 mM DTT); eluates immunoblotted with a GFP monoclonal antibody; only the target purified

Molecule | binding
GFP-Rac1a (from UniProt P34144 1-194) | binds
GFP-RacB (from UniProt P34148 1-195) | no binding
GFP-RacC (from UniProt P34149 1-192) | binds
GFP-RacD (from UniProt P34150 1-254) | no binding
GFP-RacH (from UniProt Q9GPR7 1-200) | binds
GFP-RacE (protein, UniProt Q23862 1-223) MSEDQGSGATRVKLVVVGDGAVGKTCLLICYAQNDFPVDYVPTVFENYTATRKRGNEDIKVHLWDTAGQEEYDRLRPLSYPGADVVLLCFSTISQSSYEAIRDKWAPEVNHYIPDVPSILVGTKIDLREQQHPDPNSGKFEPITADMGISMQKQIKAKKYLEVSAKTRQGLEEVFSAAIEIVLESRGMDKKSQDGSSSASGVPSGDKPTKGKAGKKKSGCIIL | binds
GFP-RacI (protein, UniProt Q9GPR2 1-205) MQKSYIKLLVLGDSKTGKTTMMMTYSTGSFPTGYVPSHVDATSLDIEYNKQVCHVGFWDSSALAEFDNTRPSTYPNTNVIILCFSIDSPTSFENVSKKWIPEIRQYAPSIHTPIILLGTKCDLREDENTINLLKENNQMPPISYKQGLALSKEIKATMYLECSSLCNQGVNEIFKQVVRCHLYCKDGVLNDPTTTTSNTSKCIIQ | binds
